{"source": "the supplement of paper PMC8728848", "binders": {"B1": {"name": "Mindin (Homo sapiens), Q9BUD6 (protein)", "chain": "MENPSPAAALGKALCALLLATLGAAGQPLGGESICSARALAKYSITFTGKWSQTAFPKQYPLFRPPAQWSSLLGAAHSSDYSMWRKNQYVSNGLRDFAERGEAWALMKEIEAAGEALQSVHEVFSAPAVPSGTGQTSAELEVQRRHSLVSFVVRIVPSPDWFVGVDSLDLCDGDRWREQAALDLYPYDAGTDSGFTFSSPNFATIPQDTVTEITSSSPSHPANSFYYPRLKALPPIARVTLVRLRQSPRAFIPPAPVLPSRDNEIVDSASVPETPLDCEVSLWSSWGLCGGHCGRLGTKSRTRYVRVQPANNGSPCPELEEEAECVPDNCV"}}, "experiment_in_all_cases": "glycan array binding signal (z-score within array); higher = stronger binding", "conditions_in_all_cases": "glycan notation: IUPAC condensed, linker removed", "key": {"[1]": {"target": "Man(a1-3)[Man(a1-6)]Man(b1-4)GlcNAc(b1-4)GlcNAc", "outline": "(§1)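 Arrays were curated from the Consortium for Functional Glycomics database, 3228 in total, and kept only where the protein sequence was available. Binding is expressed as a within-array Z-score. This score was averaged across arrays of the same protein sequence at different concentrations or buffers and across linkers, and negative values can be read as non-binding.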"}, "Man(b1-4)GlcNAc": {"target": "Man(b1-4)GlcNAc", "outline": "as §1"}, "Neu5Ac(a2-3)Gal": {"target": "Neu5Ac(a2-3)Gal", "outline": "as §1"}, "[2]": {"target": "Neu5Ac(a2-3)Gal(b1-3)GalNAc", "outline": "as §1"}, "[3]": {"target": "Neu5Ac(a2-3)Gal(b1-3)GalNAc(b1-3)Gal(a1-4)Gal(b1-4)Glc", "outline": "as §1"}, "[4]": {"target": "Neu5Ac(a2-3)Gal(b1-3)GalNAc(b1-3)Gal(b1-4)GlcNAc", "outline": "as §1"}, "[5]": {"target": "Neu5Ac(a2-3)Gal(b1-3)GalNAc(b1-4)[Neu5Ac(a2-3)]Gal(b1-4)Glc", "outline": "as §1"}, "[6]": {"target": "Neu5Ac(a2-3)Gal(b1-3)GalNAc6S", "outline": "as §1"}, "[7]": {"target": "Neu5Ac(a2-3)Gal(b1-3)GlcNAc", "outline": "as §1"}, "[8]": {"target": "Neu5Ac(a2-3)Gal(b1-3)GlcNAc(b1-3)Gal(b1-3)GlcNAc", "outline": "as §1"}, "[9]": {"target": "Neu5Ac(a2-3)Gal(b1-3)GlcNAc6S", "outline": "as §1"}, "[10]": {"target": "Neu5Ac(a2-3)Gal(b1-3)[Fuc(a1-4)]GlcNAc", "outline": "as §1"}, "[11]": {"target": "Neu5Ac(a2-3)Gal(b1-3)[Fuc(a1-4)]GlcNAc(b1-3)Gal(b1-4)[Fuc(a1-3)]GlcNAc", "outline": "as §1"}, "[12]": {"target": "Neu5Ac(a2-3)Gal(b1-3)[Neu5Ac(a2-3)Gal(b1-4)]GlcNAc", "outline": "as §1"}, "[13]": {"target": "Neu5Ac(a2-3)Gal(b1-3)[Neu5Ac(a2-6)]GalNAc", "outline": "as §1"}, "Neu5Ac(a2-3)Gal(b1-4)Glc": {"target": "Neu5Ac(a2-3)Gal(b1-4)Glc", "outline": "as §1"}, "[14]": {"target": "Neu5Ac(a2-3)Gal(b1-4)GlcNAc", "outline": "as §1"}, "[15]": {"target": "Neu5Ac(a2-3)Gal(b1-4)GlcNAc(b1-2)Man(a1-3)[Neu5Ac(a2-3)Gal(b1-4)GlcNAc(b1-2)Man(a1-6)]Man(b1-4)GlcNAc(b1-4)GlcNAc", "outline": "as §1"}, "[16]": {"target": "Neu5Ac(a2-3)Gal(b1-4)GlcNAc(b1-3)Gal(b1-3)GlcNAc", "outline": "as §1"}, "[17]": {"target": "Neu5Ac(a2-3)Gal(b1-4)GlcNAc(b1-3)Gal(b1-4)GlcNAc", "outline": "as §1"}, "[18]": {"target": "Neu5Ac(a2-3)Gal(b1-4)GlcNAc(b1-3)Gal(b1-4)GlcNAc(b1-3)Gal(b1-4)GlcNAc", "outline": "as §1"}, "[19]": {"target": "Neu5Ac(a2-3)Gal(b1-4)GlcNAc(b1-3)Gal(b1-4)[Fuc(a1-3)]GlcNAc", "outline": "as §1"}, "[20]": {"target": "Neu5Ac(a2-3)Gal(b1-4)GlcNAc(b1-6)[Gal(b1-3)]GalNAc", "outline": "as §1"}, "[21]": {"target": "Neu5Ac(a2-3)Gal(b1-4)GlcNAc6S", "outline": "as §1"}, "[22]": {"target": "Neu5Ac(a2-3)Gal(b1-4)[Fuc(a1-3)]GlcNAc", "outline": "as §1"}, "[23]": {"target": "Neu5Ac(a2-3)Gal(b1-4)[Fuc(a1-3)]GlcNAc(b1-3)Gal", "outline": "as §1"}, "[24]": {"target": "Neu5Ac(a2-3)Gal(b1-4)[Fuc(a1-3)]GlcNAc(b1-3)Gal(b1-4)GlcNAc", "outline": "as §1"}, "[25]": {"target": "Neu5Ac(a2-3)Gal(b1-4)[Fuc(a1-3)]GlcNAc(b1-3)Gal(b1-4)[Fuc(a1-3)]GlcNAc(b1-3)Gal(b1-4)[Fuc(a1-3)]GlcNAc", "outline": "as §1"}, "[26]": {"target": "Neu5Ac(a2-3)Gal(b1-4)[Fuc(a1-3)]GlcNAc6S", "outline": "as §1"}, "[27]": {"target": "Neu5Ac(a2-3)Gal6S(b1-4)GlcNAc", "outline": "as §1"}}, "note": "The list shows a part of the results."}
{"binder": "B1", "values": [{"measurement": "glycan array binding signal (z-score)", "setting": "[1]", "value": -0.201}, {"measurement": "glycan array binding signal (z-score)", "setting": "Man(b1-4)GlcNAc", "value": -0.32}, {"measurement": "glycan array binding signal (z-score)", "setting": "Neu5Ac(a2-3)Gal", "value": -0.347}, {"measurement": "glycan array binding signal (z-score)", "setting": "[2]", "value": -0.265}, {"measurement": "glycan array binding signal (z-score)", "setting": "[3]", "value": -0.246}, {"measurement": "glycan array binding signal (z-score)", "setting": "[4]", "value": -0.364}, {"measurement": "glycan array binding signal (z-score)", "setting": "[5]", "value": -0.327}, {"measurement": "glycan array binding signal (z-score)", "setting": "[6]", "value": -0.268}, {"measurement": "glycan array binding signal (z-score)", "setting": "[7]", "value": -0.335}, {"measurement": "glycan array binding signal (z-score)", "setting": "[8]", "value": -0.35}, {"measurement": "glycan array binding signal (z-score)", "setting": "[9]", "value": -0.233}, {"measurement": "glycan array binding signal (z-score)", "setting": "[10]", "value": -0.359}, {"measurement": "glycan array binding signal (z-score)", "setting": "[11]", "value": 0.188}, {"measurement": "glycan array binding signal (z-score)", "setting": "[12]", "value": -0.29}, {"measurement": "glycan array binding signal (z-score)", "setting": "[13]", "value": -0.339}, {"measurement": "glycan array binding signal (z-score)", "setting": "Neu5Ac(a2-3)Gal(b1-4)Glc", "value": -0.304}, {"measurement": "glycan array binding signal (z-score)", "setting": "[14]", "value": -0.349}, {"measurement": "glycan array binding signal (z-score)", "setting": "[15]", "value": 0.07}, {"measurement": "glycan array binding signal (z-score)", "setting": "[16]", "value": -0.193}, {"measurement": "glycan array binding signal (z-score)", "setting": "[17]", "value": -0.323}, {"measurement": "glycan array binding signal (z-score)", "setting": "[18]", "value": -0.321}, {"measurement": "glycan array binding signal (z-score)", "setting": "[19]", "value": -0.24}, {"measurement": "glycan array binding signal (z-score)", "setting": "[20]", "value": -0.36}, {"measurement": "glycan array binding signal (z-score)", "setting": "[21]", "value": -0.298}, {"measurement": "glycan array binding signal (z-score)", "setting": "[22]", "value": -0.257}, {"measurement": "glycan array binding signal (z-score)", "setting": "[23]", "value": -0.315}, {"measurement": "glycan array binding signal (z-score)", "setting": "[24]", "value": -0.211}, {"measurement": "glycan array binding signal (z-score)", "setting": "[25]", "value": -0.314}, {"measurement": "glycan array binding signal (z-score)", "setting": "[26]", "value": -0.3}, {"measurement": "glycan array binding signal (z-score)", "setting": "[27]", "value": -0.205}]}
